# This list was built around the results that the source calls inconclusive (neither active nor inactive); the mix of calls is not that of the screen. For part of these data: Potencies beside an inconclusive call are fits to weak or partial responses and may not hold up. For part of these data: A note “side channel” means that the fit belongs to a control or component signal, not to the main read-out. Some compounds were tested as several samples or in several runs, with calls that do not always agree. Active and inactive are the calls of the source. Unless noted, calls come from the whole dose curve; as a rule, active = well fitted curve in the direction sought with a large enough effect; inconclusive = small, poorly fitted or top-dose-only effect, or another doubt; inactive = no such curve, though single readings can be large; an effect the other way counts as inactive or inconclusive.
# Columns and labels:
# [1] = biological target: Chromobox protein homolog 1 (Homo sapiens) (UniProt P83916); test: qHTS Validation Assay for Inhibitors of HP1-beta Chromodomain Interactions with Methylated Histone Tails (AID 488953); note: nearly all actives have a fitted effect of over 50% in size; note: potency is the fitted concentration of half-maximal effect
# Outline: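 AlphaScreen proximity signal from streptavidin donor and nickel chelate acceptor beads (final 10 ug/mL) after 30 min dark incubation. Compounds had 30 min at room temperature with preformed complex of 50 nM HP1-beta and 50 nM b-H3(1-18)K9me3 in PBS pH 7.4 with 0.01% Tween-20.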
# [2] = biological target: ATPase family AAA domain-containing protein 5 (Homo sapiens) (UniProt Q96QE3); test: Validation screen for small molecules that inhibit ELG1-dependent DNA repair in human embryonic kidney (HEK293T) cells expressing luciferase-tagged ELG1 (AID 493107); conditions: HEK293T ELG1-luciferase level, luminescence, 5-fluorouridine co-treatment, 16 h; series mostly up to 46.1 µM; note: nearly all actives have a fitted effect of over 70% in size; note: potency is the fitted concentration of half-maximal effect
# Outline: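 Luciferase read-out, ONE-Glo, 30 min at room temperature, follows 16 h co-exposure at 37 C of compound and the DNA-damaging agent 5-fluorouridine. Cells: HEK293T with ELG1-luciferase fusion, 2,000 per well, DMSO as vehicle.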
# [3] = biological target: Ubiquitin carboxyl-terminal hydrolase 1 (Homo sapiens) (UniProt O94782); test: Inhibitors of USP1/UAF1: Pilot qHTS (AID 504865); note: potency is the fitted concentration of half-maximal effect;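 note: rhodamine fluorescence freed from ubiquitin-rhodamine substrate followed over time; nearly all actives have a fitted effect of over 35% in size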
# Outline: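 Enzyme-free wells gave the negative control, while test wells held 1nM USP1/UAF1 preincubated with compound for 15 min at room temperature. Ub-Rho at 150nM final started the reaction, and fluorescence at 480/540 nm was recorded kinetically.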
# [4] = qHTS for Inhibitors of ATXN expression: Validation of Cytotoxic Assay (AID 588349); note: potency is the fitted concentration of half-maximal effect
# Outline: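 Cytotoxicity counter-screen: ATP-based luminescent viability (CellTiter Glo) after 72 hr exposure of HEK293 cells to a compound titration at 37 degrees C.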
# [5] = qHTS for Inhibitors of ATXN expression: Validation (AID 588378); note: nearly all actives have a fitted effect of over 75% in size; note: potency is the fitted concentration of half-maximal effect
# Outline: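 After a 2 h attachment and 24 h compound incubation, HEK293-ATXN2-FFLuc wells are read for fluorescence at 405 nm excitation/525 nm emission as a viability measure, then for Bright-Glo luminescence reflecting ATXN2 expression.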
# [6] = biological target: DNA dC->dU-editing enzyme APOBEC-3G (Homo sapiens) (UniProt Q9HC16); test: qHTS for inhibitors of Vif-A3G interactions: Validation (AID 588379); conditions: Vif-A3G protein interaction assay; note: potency is the fitted concentration of half-maximal effect
# Outline: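 Yellow fluorescence (Ex 488, Em 500-530) of Vif-coexpressing HeLa A3G-eYFP cells, scanned by Acumen cytometer, reports blocked A3G degradation. Cells plated at 700/well overnight at 37 deg C before compound addition, then a further overnight compound incubation at 37 deg C.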
# [7] = qHTS for Inhibitors of Cell Surface uPA Generation: Validation Assay (AID 493164); conditions: mouse cells, plasminogen activation; note: potency is the fitted concentration of half-maximal effect
# Outline: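 ATP-Lite luminescence read-out: ATP remains high when uPA activity-dependent LF translocation into the cytoplasm is blocked. RAW 264.7 cells, 18 h compound exposure at 37 C; 7-point titration, 2.45 nM to 38.3 uM final.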
# [8] = biological target: Peptidyl-prolyl cis-trans isomerase NIMA-interacting 1 (Homo sapiens) (UniProt Q13526); test: qHTS Validation Assay to Find Inhibitors of Pin1 (AID 504536; active = well fitted inhibition curve with a large enough effect in the polarisation, with a control signal flat, not every such curve was filed as active; inconclusive = small, poorly fitted or top-dose-only effect, or effect the other way; the % refers to the polarisation; note: potency is the fitted concentration of half-maximal effect)
# Outline: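 Fluorescence polarization competition: compounds (titration) displace HiFluor-488-labeled Pin1-1b peptide from Pin1 (0.3 uM final) in pH 7.5 HEPES buffer with DTT, 10 min at room temperature; %Activity normalized to no-enzyme wells, curves fitted.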
# [9] = biological target: Transient receptor potential cation channel subfamily V member 1 (Homo sapiens) (UniProt Q8NER1); test: HTS Assay for Compounds that Act as Enhancers of the Vanilloid Receptor 1 (AID 488979); note: potency is the fitted concentration of half-maximal effect
# Outline: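 Calcium influx kinetics via Fluo-8 (480/520 nm) in TRPV1-expressing cells, 2000/well cultured overnight at 35.5C. Compound-alone read 3 min (agonist phase), followed by EC20 capsaicin challenge for 2 min (enhancer phase).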
# [10] = Validation screen for small molecules that induce DNA re-replication in SW480 colon adenocarcinoma cells (AID 504364); note: potency is the fitted concentration of half-maximal effect
# Outline: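 Image-based DNA content read-out: Hoechst stain 40 min, total nuclear fluorescence intensity (ex 405 nm, em 500-530 nm) after 48 h compound exposure of 250 SW480 cells/well at 37 C, 5% CO2, versus DMSO vehicle.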
# [11] = biological target: phosphoglycerate mutase (Leishmania major) (UniProt Q4Q090); test: qHTS Validation Assay to Find Inhibitors of Phosphoglycerate Mutase (AID 504548); conditions: Potency: inhibition qHTS;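 note: end-point luminescence from Kinase-GloPlus after the PGAM reaction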
# Outline: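 L. major PGAM (1.25nM final) was added to substrate buffer and pinned compound, incubated 45 minutes at room temperature, then Kinase-GloPlus added; luminescence read after 10 minutes. Buffer: 100 mM TEA pH 7.6, 5 mM MgCl2, 0.01% Tween-20.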
# [12] = biological target: D(1A) dopamine receptor (Homo sapiens) (UniProt P21728); test: HTS Assay for Allosteric Agonists of the Human D1 Dopamine Receptor: Primary Screen for Potentiators (AID 488982)
# Outline: (§1)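 Calcium flux in an inducible, force-coupled HEK293 Trex D1 line (overnight at 30 C): agonist mode is the 180 s kinetic read after compound; potentiator mode is the following 180 s read after dopamine at EC20.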
# [13] = Validation screen for small molecules that induce genotoxicity in human embryonic kidney (HEK293T) cells expressing luciferase-tagged ELG1 (AID 493106); note: potency is the fitted concentration of half-maximal effect
# Outline: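 ELG1-luciferase reporter readout (ONE-Glo, 30 min, room temperature) after 16 hr compound treatment at 37 °C of HEK293T cells at 2,000 per well. Rising luminescence flags genotoxic stress.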
# [14] = biological target: D(1A) dopamine receptor (Homo sapiens) (UniProt P21728); test: HTS Assay for Allosteric Agonists of the Human D1 Dopamine Receptor: Primary Screen for Agonists (AID 488981); note: potency is the fitted concentration of half-maximal effect
# Outline: as §1
# [15] = biological target: Methanococcus maripaludis chaperonin (MmCpn) (UniProt Q6LX38); test: High-Throughput Screening for Modulators of Cytosolic Chaperonin Activity: MmCpn Primary Screen (AID 488978); conditions: Purified MmCpn ATPase activity, ADP HTRF detection, 10 min; note: potency is the fitted concentration of half-maximal effect
# Outline: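 HTRF readout (320 nm excitation, 590/665 nm emission) of ADP generated by 50 nM MmCpn hydrolysing 30 uM ATP during 10 min at 37C; compound preincubated 5 min RT.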
# Tags give direction and shape of the fitted curve or compound fluorescence and quenching.
# UniProt P21728, sequence (P21728 whole entry, looked up): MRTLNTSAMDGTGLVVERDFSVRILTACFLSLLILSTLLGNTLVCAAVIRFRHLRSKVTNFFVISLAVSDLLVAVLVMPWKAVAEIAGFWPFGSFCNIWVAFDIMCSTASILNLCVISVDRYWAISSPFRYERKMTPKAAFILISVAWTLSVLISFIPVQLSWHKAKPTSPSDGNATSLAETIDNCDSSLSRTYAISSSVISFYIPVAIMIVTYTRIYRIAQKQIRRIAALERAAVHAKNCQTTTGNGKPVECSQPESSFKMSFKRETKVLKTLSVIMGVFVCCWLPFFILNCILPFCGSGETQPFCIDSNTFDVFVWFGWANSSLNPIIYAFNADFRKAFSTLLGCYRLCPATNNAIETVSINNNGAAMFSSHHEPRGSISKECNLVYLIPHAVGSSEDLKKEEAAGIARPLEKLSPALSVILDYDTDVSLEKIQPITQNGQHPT
# UniProt Q96QE3, sequence (Q96QE3 whole entry, looked up, the tested form may be a part): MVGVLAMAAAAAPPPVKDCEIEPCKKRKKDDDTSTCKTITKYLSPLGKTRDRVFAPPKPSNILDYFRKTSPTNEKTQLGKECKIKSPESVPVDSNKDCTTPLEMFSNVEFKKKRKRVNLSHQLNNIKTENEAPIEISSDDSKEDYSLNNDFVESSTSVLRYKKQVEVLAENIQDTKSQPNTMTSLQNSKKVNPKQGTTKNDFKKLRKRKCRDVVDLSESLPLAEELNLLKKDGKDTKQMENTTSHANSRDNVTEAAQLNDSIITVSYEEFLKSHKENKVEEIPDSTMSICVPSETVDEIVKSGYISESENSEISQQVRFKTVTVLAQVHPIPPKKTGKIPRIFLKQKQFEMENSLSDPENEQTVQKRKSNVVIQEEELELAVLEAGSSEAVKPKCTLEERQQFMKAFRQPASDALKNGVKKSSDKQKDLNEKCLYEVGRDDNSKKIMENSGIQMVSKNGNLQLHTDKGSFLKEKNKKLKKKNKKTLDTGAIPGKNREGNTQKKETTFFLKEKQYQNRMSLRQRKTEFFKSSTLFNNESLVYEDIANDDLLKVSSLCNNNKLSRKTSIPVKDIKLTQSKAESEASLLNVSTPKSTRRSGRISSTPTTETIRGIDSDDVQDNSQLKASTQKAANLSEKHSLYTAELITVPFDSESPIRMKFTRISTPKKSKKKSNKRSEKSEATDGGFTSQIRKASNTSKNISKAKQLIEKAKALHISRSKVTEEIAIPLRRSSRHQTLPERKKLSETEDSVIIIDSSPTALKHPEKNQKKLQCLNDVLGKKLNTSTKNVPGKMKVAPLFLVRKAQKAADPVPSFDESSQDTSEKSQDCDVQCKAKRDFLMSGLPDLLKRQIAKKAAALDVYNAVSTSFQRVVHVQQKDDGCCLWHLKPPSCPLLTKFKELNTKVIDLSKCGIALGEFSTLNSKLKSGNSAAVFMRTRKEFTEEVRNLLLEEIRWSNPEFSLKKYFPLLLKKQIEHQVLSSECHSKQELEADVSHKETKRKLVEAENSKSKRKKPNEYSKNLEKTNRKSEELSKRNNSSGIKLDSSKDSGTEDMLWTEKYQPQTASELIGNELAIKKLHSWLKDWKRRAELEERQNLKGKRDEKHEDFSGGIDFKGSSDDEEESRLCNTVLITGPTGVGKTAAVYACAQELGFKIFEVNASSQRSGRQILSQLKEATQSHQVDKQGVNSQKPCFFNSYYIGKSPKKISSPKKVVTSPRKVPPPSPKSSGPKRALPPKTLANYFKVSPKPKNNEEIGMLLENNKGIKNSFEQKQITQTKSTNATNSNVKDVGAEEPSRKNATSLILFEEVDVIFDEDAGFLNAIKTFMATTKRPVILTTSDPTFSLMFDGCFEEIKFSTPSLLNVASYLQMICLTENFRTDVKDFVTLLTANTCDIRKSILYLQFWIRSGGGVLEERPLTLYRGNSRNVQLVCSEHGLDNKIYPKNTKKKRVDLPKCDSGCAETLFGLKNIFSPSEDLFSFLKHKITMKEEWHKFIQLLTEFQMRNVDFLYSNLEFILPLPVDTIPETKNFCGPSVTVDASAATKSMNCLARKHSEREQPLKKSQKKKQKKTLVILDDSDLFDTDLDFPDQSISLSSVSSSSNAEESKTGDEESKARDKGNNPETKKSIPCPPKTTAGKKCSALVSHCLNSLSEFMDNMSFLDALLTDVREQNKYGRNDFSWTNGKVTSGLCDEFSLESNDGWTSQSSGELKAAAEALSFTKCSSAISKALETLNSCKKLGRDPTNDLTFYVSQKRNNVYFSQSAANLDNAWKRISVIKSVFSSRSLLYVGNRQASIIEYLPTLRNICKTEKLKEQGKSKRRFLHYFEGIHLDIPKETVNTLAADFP
# UniProt Q13526, sequence (Q13526 whole entry, looked up): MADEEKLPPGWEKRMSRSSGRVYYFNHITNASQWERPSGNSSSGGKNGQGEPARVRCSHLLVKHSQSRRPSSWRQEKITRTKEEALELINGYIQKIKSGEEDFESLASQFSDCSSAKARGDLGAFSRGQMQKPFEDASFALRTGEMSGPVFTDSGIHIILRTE
# UniProt P83916, sequence (P83916 whole entry, looked up): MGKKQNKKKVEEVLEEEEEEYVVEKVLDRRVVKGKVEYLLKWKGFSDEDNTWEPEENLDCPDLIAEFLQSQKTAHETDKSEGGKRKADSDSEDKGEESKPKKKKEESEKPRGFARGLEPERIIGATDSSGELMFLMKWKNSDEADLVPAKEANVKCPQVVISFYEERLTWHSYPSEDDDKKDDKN
# UniProt O94782, sequence (O94782 whole entry, looked up): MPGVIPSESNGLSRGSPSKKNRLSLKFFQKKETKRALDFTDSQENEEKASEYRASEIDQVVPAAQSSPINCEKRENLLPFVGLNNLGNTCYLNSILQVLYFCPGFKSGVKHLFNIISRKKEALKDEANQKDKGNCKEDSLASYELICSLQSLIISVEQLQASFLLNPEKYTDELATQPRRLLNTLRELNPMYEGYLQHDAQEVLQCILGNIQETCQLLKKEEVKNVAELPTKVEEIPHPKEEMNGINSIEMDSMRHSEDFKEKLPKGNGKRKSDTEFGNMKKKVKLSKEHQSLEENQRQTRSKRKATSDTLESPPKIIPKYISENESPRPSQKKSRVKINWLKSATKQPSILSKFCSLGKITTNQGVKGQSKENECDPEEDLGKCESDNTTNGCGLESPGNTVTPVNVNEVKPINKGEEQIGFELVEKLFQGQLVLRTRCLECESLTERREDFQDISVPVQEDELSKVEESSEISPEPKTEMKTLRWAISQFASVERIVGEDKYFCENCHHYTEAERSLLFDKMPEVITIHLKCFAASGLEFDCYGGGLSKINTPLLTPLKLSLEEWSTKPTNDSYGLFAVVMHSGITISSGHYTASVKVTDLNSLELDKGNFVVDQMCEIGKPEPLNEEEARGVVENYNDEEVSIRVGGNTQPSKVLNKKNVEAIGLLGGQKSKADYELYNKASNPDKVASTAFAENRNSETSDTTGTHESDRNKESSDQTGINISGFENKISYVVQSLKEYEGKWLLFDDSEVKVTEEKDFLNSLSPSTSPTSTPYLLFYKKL
# UniProt Q9HC16, sequence (Q9HC16 whole entry, looked up): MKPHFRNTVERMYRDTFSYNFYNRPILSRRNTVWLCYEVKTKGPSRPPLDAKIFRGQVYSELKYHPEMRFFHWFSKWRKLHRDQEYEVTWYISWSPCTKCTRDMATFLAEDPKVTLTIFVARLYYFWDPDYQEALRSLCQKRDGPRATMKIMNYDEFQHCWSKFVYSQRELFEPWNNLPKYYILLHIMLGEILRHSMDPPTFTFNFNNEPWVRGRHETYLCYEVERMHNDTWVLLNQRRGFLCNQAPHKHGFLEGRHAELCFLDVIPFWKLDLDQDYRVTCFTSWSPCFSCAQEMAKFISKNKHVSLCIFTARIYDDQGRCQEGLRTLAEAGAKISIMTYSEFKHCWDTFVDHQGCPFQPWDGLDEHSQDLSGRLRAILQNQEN
# UniProt Q8NER1, sequence (Q8NER1 whole entry, looked up): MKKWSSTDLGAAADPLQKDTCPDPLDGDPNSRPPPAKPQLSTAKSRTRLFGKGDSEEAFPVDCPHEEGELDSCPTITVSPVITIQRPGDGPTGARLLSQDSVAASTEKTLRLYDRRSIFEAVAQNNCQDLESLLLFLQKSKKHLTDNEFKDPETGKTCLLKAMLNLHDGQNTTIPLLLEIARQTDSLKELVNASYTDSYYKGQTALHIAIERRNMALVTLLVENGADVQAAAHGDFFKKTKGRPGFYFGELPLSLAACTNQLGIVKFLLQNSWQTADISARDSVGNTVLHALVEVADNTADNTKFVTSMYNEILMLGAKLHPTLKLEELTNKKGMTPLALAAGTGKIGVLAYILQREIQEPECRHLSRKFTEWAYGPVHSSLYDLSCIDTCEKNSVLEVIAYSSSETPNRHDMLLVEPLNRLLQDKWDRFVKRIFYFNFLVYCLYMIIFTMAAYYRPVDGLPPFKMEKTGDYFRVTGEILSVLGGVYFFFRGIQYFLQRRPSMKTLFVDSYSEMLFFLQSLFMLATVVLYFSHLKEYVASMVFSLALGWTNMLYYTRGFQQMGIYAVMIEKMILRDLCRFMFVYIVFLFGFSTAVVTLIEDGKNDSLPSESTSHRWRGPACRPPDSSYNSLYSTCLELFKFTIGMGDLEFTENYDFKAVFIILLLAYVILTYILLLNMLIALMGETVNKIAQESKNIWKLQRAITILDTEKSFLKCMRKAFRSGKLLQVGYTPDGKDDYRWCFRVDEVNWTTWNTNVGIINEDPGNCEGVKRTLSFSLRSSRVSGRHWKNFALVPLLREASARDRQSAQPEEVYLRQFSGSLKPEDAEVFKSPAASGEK
smiles,measurement,setting,value
NC[C@@H]1O[C@H](C23CC4CC(CC(C4)C2)C3)Cc2c1ccc(O)c2O,Potency,[1],"inconclusive: 44.7 µM [inhibitor, partial curve]"
same,Potency,[2],"inconclusive: 23.1 µM [inhibitor, partial curve]"
same,Potency,[3],inactive
same,Potency,[4],active: 31.6 µM
same,Potency,[5],active: 20 µM
same,Potency,[6],"inconclusive: 29.9 µM [inhibitor, partial curve, poor fit]"
CCCCc1oc2ccccc2c1C(=O)c1cc(I)c(OCCN(CC)CC)c(I)c1,Potency,[1],active: 44.7 µM
same,Potency,[2],"inconclusive: 16.4 µM [inhibitor, partial curve, poor fit]"
same,Potency,[7],"inconclusive: 14.7 µM [inhibitor, partial curve, poor fit]"
same,Potency,[8],"inconclusive: 4.78 µM [falling, single point]"
same,Potency,[4],"inconclusive: 39.8 µM [cytotoxic, single point]"
same,Potency,[5],"inconclusive: 22.4 µM [inhibitor, partial curve, poor fit]"
O=C(CCCN1CCC(O)(c2ccc(Cl)cc2)CC1)c1ccc(F)cc1,Potency,[9],"inconclusive: 11.2 µM [activator, single point]"
same,Potency,[2],"inconclusive: 20.6 µM [inhibitor, partial curve, poor fit]"
same,Potency,[5],inactive
Nc1ccc(N2C(=O)c3ccccc3C2=O)c(Cl)c1,Potency,[1],inactive
same,Potency,[4],inactive
CNCC(O)c1ccc(O)c(O)c1 (configuration not stated),Potency,[1],inactive
same,Potency,[4],"inconclusive: 39.8 µM [cytotoxic, single point]"
O=[N+]([O-])c1ccc2c(c1)S(=O)(=O)C=C2,Potency,[1],"inconclusive: 17.8 µM [inhibitor, partial curve]"
same,Potency,[2],"inconclusive: 20.6 µM [inhibitor, single point]"
same,Potency,[3],"inconclusive: 50.1 µM [inhibitor, partial curve]"
same,Potency,[5],active: 6.31 µM
O=c1onc2cnc3ccccc3n12,Potency,[1],"inconclusive: 0.0053 µM [inhibitor, full curve]"
same,Potency,[2],inactive
same,Potency,[10],"inconclusive: 18.4 µM [activator, single point]"
same,Potency,[5],inactive
same,Potency,[6],"inconclusive: 23.7 µM [inhibitor, single point]"
N=C(N)SCCc1cnc[nH]1,Potency,[1],"inconclusive: 50.1 µM [inhibitor, partial curve]"
same,Potency,[2],"inconclusive: 2.91 µM [activator, full curve, poor fit]"
same,Potency,[11],inactive
O=C1Cc2cc(CCN3CCN(c4nsc5ccccc45)CC3)c(Cl)cc2N1,Potency,[1],"inconclusive: 0.267 µM [inhibitor, full curve]"
same,Potency,[2],active: 9.2 µM
same,Potency,[3],"inconclusive: 0.282 µM [inhibitor, full curve, poor fit]"
same,Potency,[4],"inconclusive: 31.6 µM [cytotoxic, partial curve, poor fit]"
same,Potency,[5],"inconclusive: 31.6 µM [inhibitor, partial curve, poor fit]"
CN[C@H](CC(=O)O)C(=O)O,Potency,[12],inactive
same,Potency,[13],inactive
CCOC(=O)N1CCN(/[N+]([O-])=N/Oc2ccc([N+](=O)[O-])cc2[N+](=O)[O-])CC1,Potency,[1],"inconclusive: 50.1 µM [inhibitor, partial curve, poor fit]"
same,Potency,[2],"inconclusive: 29.1 µM [activator, single point]"
same,Potency,[3],"inconclusive: 31.6 µM [inhibitor, full curve, poor fit]"
Oc1ccc(C2CNCc3sccc32)cc1O (configuration not stated),Potency,[14],"inconclusive: 0.316 µM [activator, full curve]"
same,Potency,[2],inactive
same,Potency,[4],"inconclusive: 31.6 µM [cytotoxic, single point]"
same,Potency,[5],"inconclusive: 25.1 µM [inhibitor, single point]"
O=C1NC(=O)/C(=C/c2ccc(-c3ccc(F)cc3O)o2)S1,Potency,[14],"inconclusive: 11.2 µM [activator, partial curve]"
same,Potency,[13],"inconclusive: 16.4 µM [activator, partial curve, poor fit]"
same,Potency,[2],"inconclusive: 18.3 µM [activator, partial curve]"
same,Potency,[3],active: 44.7 µM
C=Cc1c(C)c2cc3[nH]c(cc4nc(cc5nc(cc1[nH]2)C(C)=C5CCC(=O)O)C(CCC(=O)O)=C4C)c(C)c3C=C,Potency,[15],active: 31.6 µM
same,Potency,[8],"inconclusive: 0.601 µM [quencher, side channel, partial curve, poor fit]"
same,Potency,[3],active: 50.1 µM
COc1cc2nc(N3CCCN(C)CC3)nc(NC3CCN(Cc4ccccc4)CC3)c2cc1OC,Potency,[1],"inconclusive: 39.8 µM [inhibitor, partial curve]"
same,Potency,[2],active: 25.9 µM
same,Potency,[8],inactive
same,Potency,[3],inactive
same,Potency,[5],active: 7.94 µM

# — PubChem BioAssay (NCATS)
